# Several values for one entry are separate records, joined by “and”; a condition that tells them apart may be missing. Equal values may be shown once. Among all 390,000 compounds or so, about 930 (0.24%) were called active. The inconclusive results got no clear call from the source; some entries with a clear call stand among them for comparison. The call rests on the fitted dose curve; in most records, active means well fitted activation curve with a large enough effect; inconclusive means small, poorly fitted or top-dose-only effect; inactive means no such curve, though single readings can be large or run the other way. A potency beside an inconclusive call is a rough fit, not a confirmed value.
# Assay: qHTS for Suppressors of FUS Proteinopathy: Primary screen using FUS-linked yeast assay; further: nearly all actives have a fitted effect of over 55% in size;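 on growth rescue (activation): plate controls were DMSO vehicle for no effect and reference control for full effect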
# Settings: S. cerevisiae FUS-expressing, OD600, 24 h; Potency: growth rescue; growth rescue (activation): at 76.6 µM (top of the series)
# Outline: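 Cultures pregrown in 2.5% raffinose medium are shifted to minimal medium containing 2% galactose to express toxic FUS. Compounds are tested at several concentrations. After 24hr at 30C, growth is quantified at 600 nm absorbance.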
# Potency means the concentration at half of the fitted maximal effect; tags describe the fitted curve by direction and shape.
Structure (SMILES),Potency,growth rescue (activation)
Cc1ccc(-c2cc(C(=O)NC3=NCCS3)c3ccccc3n2)cc1C,"inconclusive: 5.62 µM [activator, partial curve, poor fit]",–
CN/N=C/c1ccc(C#N)cc1,inactive,–
CCOC(=O)C1=C(C)N=c2s/c(=C\c3ccc(OCC(=O)O)cc3)c(=O)n2C1c1ccccc1 (configuration not stated),"inconclusive: 31.6 µM [activator, partial curve, poor fit]",–
COc1ccc(NC2CCCN(C(=O)c3ccc4[nH]c(C)c(C)c4c3)C2)cc1OC (configuration not stated),"inconclusive: 17.8 µM [activator, partial curve, poor fit]",–
Cc1ccc2nc(SCC(=O)NCc3ccccc3)nc(=O)n2c1,"inconclusive: 50.1 µM [activator, single point]",–
CCCC(C(=O)Nc1ccc(S(=O)(=O)N2CCCC2)cc1)c1ccccc1 (configuration not stated),"inconclusive: 39.8 µM [activator, single point]",–
Cc1cn(-c2ccccc2)c(C)c1/C=N\Nc1nc(N2CCOCC2)nc(N2CCOCC2)n1,"inconclusive: 25.1 µM [activator, single point]",–
O=C(COC(=O)/C=C/c1ccc(Cl)cc1)Nc1cccc(S(=O)(=O)NC2=NCCCCC2)c1,"inconclusive: 31.6 µM [activator, single point]",–
COc1ccc(-c2csc(NC(CO)c3nc4ccccc4n3Cc3ccc(C)cc3)n2)cc1 (configuration not stated),"inconclusive: 31.6 µM [activator, single point]",–
CC(=O)Nc1ccc(-n2c(CCC(=O)O)ccc2-c2ccc(C)cc2)cc1,"inconclusive: 2.51 µM [activator, full curve]",–
CCN(CC(=O)NCc1ccc(Cl)cc1)C(=O)CSCC(=O)Nc1ccc(C)cc1,"inconclusive: 31.6 µM [activator, single point]",–
CCOC(=O)c1oc2ccc(S(=O)(=O)n3nc(-c4cc(OC)cc(OC)c4)cc3N)cc2c1C,"inconclusive: 17.8 µM [activator, partial curve, poor fit]",–
O=C(Cc1ccc(S(=O)(=O)N2CCOCC2)s1)Nc1ccc(Br)c(C(F)(F)F)c1,"inconclusive: 35.5 µM [activator, single point]",–
O=C(Cc1ccccc1F)N1CCC(c2nc3c(nnn3Cc3ccc(F)cc3)c(=O)[nH]2)CC1,"inconclusive: 28.2 µM [activator, partial curve, poor fit]",–
Cc1cccc(-n2c(C)nc3cc(C(=O)NC4CCCCCC4)ccc32)c1,"inconclusive: 44.7 µM [activator, partial curve, poor fit]",–
Cc1nc(C)c(-c2ccc(SCC(=O)Nc3ccc(C)c(Cl)c3)nn2)s1,inactive,–
COc1ccc(-c2sc3ccccc3c2/C=C/c2ccncc2)cc1,"inconclusive: 50.1 µM [activator, single point]",–
COc1ccccc1NC(=O)CNC(=O)CC12CC3CC(CC(C3)C1)C2,–,inconclusive: -58.2% [activator]
c1cc2c(cc1C1CCCCC1)c1c3n2CCN=C3CCC1,"inconclusive: 12.6 µM [activator, partial curve, poor fit]",–

Structure (SMILES),Potency,growth rescue (activation)
CCOc1ccccc1NC(=O)CN1CCCN(Cc2cccc(Cl)c2)S1(=O)=O,"inconclusive: 31.6 µM [activator, single point]",–
COC(=O)[C@]12CCCCC=C1N(Cc1ccc(Cl)cc1Cl)C(=O)[C@H](CC(=O)N1CCN(C(=O)C3CC3)CC1)C2,"inconclusive: 35.5 µM [activator, single point]",–
CCCCNc1c(-c2ccc(SC3CCCCC3)c(OC)c2)nc2ccc(C)cn12,"inconclusive: 22.4 µM [activator, partial curve] and inconclusive: 50.1 µM [activator, single point]",–
CCOc1ccc(N(CC(=O)N2CCOCC2)S(=O)(=O)c2ccc(Cl)cc2)cc1,"inconclusive: 39.8 µM [activator, single point]",–
COc1cccc(C(N)c2nc(-c3csc4ccccc34)cs2)c1 (configuration not stated),inactive,–
Cc1ccc2c(c1C)NC(C(=O)O)C1CC=CC21 (configuration not stated),"inconclusive: 10 µM [activator, partial curve]",–
COC(=O)c1ccc(C23CC4(C2)[C@H](CN(Cc2cccnc2)[C@@H]4c2ccccc2)C3c2ccccc2)cc1 (some centres not stated),"inconclusive: 31.6 µM [activator, single point]",–
COc1cc2c(C#CCCO)c(-c3ccsc3)oc(=O)c2cc1OC,"inconclusive: 39.8 µM [activator, single point]",–
Cc1ccccc1CNC(=O)c1sc2ncnc(N(C)C3CCCCC3)c2c1C,"inconclusive: 35.5 µM [activator, single point]",–
COc1ccccc1NC(=O)N(Cc1ccco1)Cc1cc2ccc(C)c(C)c2[nH]c1=O,"inconclusive: 22.4 µM [activator, partial curve, poor fit]",–
CCOc1ccccc1Nc1nc(-c2cccnc2)cs1,inactive,–
Cc1ccc(-n2c(Cc3cccs3)nnc2SCC(=O)Nc2ccccc2-c2ccccc2)cc1,"inconclusive: 14.1 µM [activator, partial curve, poor fit]",–
CCc1cccc(C)c1NC(=O)CN1C(=O)C2(SCC(=O)N2c2cc(C)cc(C)c2)c2ccccc21 (configuration not stated),"inconclusive: 39.8 µM [activator, single point]",–
CCN(Cc1nc2cc(Cl)ccc2c(=O)[nH]1)C(=O)c1cccc(NC(=O)c2cccs2)c1,"inconclusive: 28.2 µM [activator, single point]",–
Oc1ccc(-c2c(C3=CCCCC3)sc3ccccc23)cc1,inactive,–
C=CC[C@H](CC(=O)N(CCO)Cc1ccccc1)C(=O)NC[C@H](OC(=O)[C@@H](CC=C)CC(=O)OC(C)(C)C)c1ccccc1,"inconclusive: 31.6 µM [activator, single point]",–
CC1CCCCN1S(=O)(=O)c1cc2c3c(c1)CC(=O)N3CCC2 (configuration not stated),"inconclusive: 20 µM [activator, single point]",–
COCCN1CCn2c(nc3cc(NC(=O)c4ccc(OC)cc4)ccc32)C1,"inconclusive: 25.1 µM [activator, partial curve, poor fit]",–

# From PubChem BioAssay AID1347120 (National Center for Advancing Translational Sciences (NCATS), 2019)
